Paper PMC4336329 (PLoS ONE, 2015)
Hit rate of the full screen: of about 310,000 compounds, about 2,200 (0.71%) showed an effect of 50% or more. Effects have a minus sign here. This is one part of the list.

target: human ether-à-go-go-related gene (hERG) potassium channel (human, UniProt Q12809); test: primary screen, population patch clamp on CHO cells stably expressing hERG
Sequence (Q12809 whole entry, looked up): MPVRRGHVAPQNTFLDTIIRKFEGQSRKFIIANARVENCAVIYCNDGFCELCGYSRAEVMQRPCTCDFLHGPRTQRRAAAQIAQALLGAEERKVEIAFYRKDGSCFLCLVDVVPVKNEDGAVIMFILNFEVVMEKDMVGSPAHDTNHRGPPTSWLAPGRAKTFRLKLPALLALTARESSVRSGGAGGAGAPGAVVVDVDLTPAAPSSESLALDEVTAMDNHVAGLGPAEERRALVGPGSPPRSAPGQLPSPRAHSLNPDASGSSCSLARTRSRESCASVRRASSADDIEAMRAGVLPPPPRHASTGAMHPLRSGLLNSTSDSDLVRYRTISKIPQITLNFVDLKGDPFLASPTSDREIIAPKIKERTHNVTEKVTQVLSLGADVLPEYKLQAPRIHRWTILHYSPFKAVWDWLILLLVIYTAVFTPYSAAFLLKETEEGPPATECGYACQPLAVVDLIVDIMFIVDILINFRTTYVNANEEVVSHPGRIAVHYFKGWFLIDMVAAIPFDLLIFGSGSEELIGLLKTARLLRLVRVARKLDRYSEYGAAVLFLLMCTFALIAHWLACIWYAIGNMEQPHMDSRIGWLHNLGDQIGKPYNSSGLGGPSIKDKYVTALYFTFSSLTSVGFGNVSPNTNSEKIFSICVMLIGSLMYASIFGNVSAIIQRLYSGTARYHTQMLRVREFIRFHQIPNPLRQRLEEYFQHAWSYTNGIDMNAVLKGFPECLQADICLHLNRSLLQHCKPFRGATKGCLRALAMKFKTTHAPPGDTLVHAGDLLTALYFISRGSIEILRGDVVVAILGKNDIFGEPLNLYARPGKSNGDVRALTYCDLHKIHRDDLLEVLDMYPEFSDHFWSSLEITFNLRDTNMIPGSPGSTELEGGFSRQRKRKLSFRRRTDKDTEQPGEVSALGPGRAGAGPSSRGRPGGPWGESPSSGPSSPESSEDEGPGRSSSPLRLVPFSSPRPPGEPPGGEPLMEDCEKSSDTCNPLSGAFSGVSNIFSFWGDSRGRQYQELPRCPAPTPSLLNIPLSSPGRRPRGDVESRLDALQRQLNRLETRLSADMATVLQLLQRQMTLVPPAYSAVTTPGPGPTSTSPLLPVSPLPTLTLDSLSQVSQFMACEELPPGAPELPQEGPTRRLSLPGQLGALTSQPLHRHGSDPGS

Structure (SMILES)	hERG current change (%, negative = inhibition) at 1uM [%]
CC(C)C(=O)Nc1ccc(S(=O)(=O)Nc2ccccn2)cc1	8.46
COc1ccccc1NC(=O)Cc1nnc(SCC(=O)NC2CCCCC2)n1C	13.8
CCOC(=O)c1ccc(NC(=O)CSc2nc(C)cc(=O)[nH]2)cc1	15.1
CCOC(=O)C1=C(C)N(C)C(=O)NC1c1ccc(C)s1 (stereo not drawn)	10.7
Cc1cc(NS(=O)(=O)c2ccccc2)c(C)c(Cl)c1O	5.98
COC(=O)c1ccccc1NC(=O)c1ccccc1SC	0.355
CC1CC(=O)N(CC(=O)Nc2cccc(F)c2)c2ccccc2S1(=O)=O (stereo not drawn)	9.68
COc1ccc2nc(SCC(=O)Nc3nccs3)[nH]c2c1	7.33
O=C(COc1ccccc1-c1ccccc1)NCc1ccco1	6.99
CCn1nnnc1SCC(=O)Nc1cccc(NC(C)=O)c1	3.23
COc1ccc(C2NC(=S)NC3=C2CCc2ccccc23)cc1OC (stereo not drawn)	8.09
O=C(Cn1c(=O)oc2cc(S(=O)(=O)N3CCCC3)ccc21)NCc1ccc(F)cc1	5.55
CCOC(=O)c1[nH]c2c(c1-c1ccccc1)C(=O)CC(c1ccc(Cl)cc1)C2 (stereo not drawn)	8.49
Cl.Cn1nnc2c(N3CCCCC3)nccc21	-0.481
CCOC(=O)c1cnc2c(C)c(Cl)ccc2c1N1CCOCC1.Cl	10.1
CCN1/C(=C/c2cccc[n+]2C)Sc2ccc(OC)cc21.[I-]	-18.4
Cc1ccc2nc(CSc3nnc(-c4ccncc4)n3C)cc(=O)n2c1	8.52
O=C(Cc1c(F)cccc1Cl)NCCCn1ccnc1	-9.03
CCC1C(=O)Nc2ccccc2N1C(=O)COc1ccccc1 (stereo not drawn)	4.42

Structure (SMILES)	hERG current change (%, negative = inhibition) at 1uM [%]
COCCNC(=O)c1cc2c(-c3ccccc3F)nn(C)c2s1	18.6
CCOC(=O)N1CCC(NC(=O)c2cc(C)c3c(C)nn(-c4ccccc4)c3n2)CC1	-0.198
CCc1nnc(NC(=O)CCN2C(=O)c3ccccc3S2(=O)=O)s1	14.8
CC1(C)CC2CC(C)(CN2S(=O)(=O)c2cccc(C(=O)OCC(N)=O)c2)C1 (stereo not drawn)	13.8
Cl.O=C(NCC(c1cccs1)N1CCOCC1)c1ccccc1NS(=O)(=O)c1ccc(Cl)c([N+](=O)[O-])c1 (stereo not drawn)	9.55
COc1cccc(CC(NC(C)=O)C(=O)NC2CCN(C(=O)c3ccc(Cl)cc3)CC2)c1OC (stereo not drawn)	2.02
Cc1ccsc1CN(C)C(=O)c1cc(S(=O)(=O)N2CCOCC2)ccc1N1CCCC1	-7.19
CC(C)(C)N(NC(=O)OCc1ccccc1)C(=O)c1ccccc1	9.07
COc1ccc(C(=O)C2CCN(C(=O)c3ccc(F)cc3)CC2)cc1	2.02
Cc1ccc(-c2noc(CSc3nnc(Cc4cccs4)n3-c3ccccc3)n2)cc1	2.97
CC1=C(C#N)C(c2ccc(O)cc2)C2=C(CC(C)(C)CC2=O)N1 (stereo not drawn)	18.9
NC(=O)c1ccsc1NC(=O)COC(=O)CSc1ccc(Cl)cc1	7.07
O=C(N/N=C/c1cccnc1)c1cc2ccccc2cc1O	12.2
CCN1CCN(C2=C(Cl)C(=O)N(Cc3ccccc3)C2=O)CC1	-9
COc1ccc(Cl)cc1NS(=O)(=O)c1cccc(C(=O)NC2CCC(O)CC2)c1 (stereo not drawn)	-5.1
COc1ccc2nc(SCC(=O)NCC(F)(F)F)[nH]c2c1	8.79
O=C(C1=C[C@H](c2ccc3c(c2)OCO3)C[C@H](OCc2ccc(CO)cc2)O1)N1CCCCCCC1	12.7
CCCCn1[nH]c(-c2ccccc2)cc1=O	7.2
CC(C)Oc1ccc(S(=O)(=O)N2CCOCC2)cc1NC(=O)Cc1cccs1	8.47

Structure (SMILES)	hERG current change (%, negative = inhibition) at 1uM [%]
COCCn1nnnc1C(c1ccccc1)N1CCN(c2ccccc2)CC1.Cl (stereo not drawn)	-9.2
O=C(N/N=C/c1cccnc1)c1ccc(Cl)c(Cl)c1	10.2
CC1(C)Cc2c(cnn2-c2cccc(F)c2)C(NC(=O)C2CCOCC2)C1 (stereo not drawn)	-5.8
CC1CCCN(C(=O)C2CCN(CCCc3ccccc3)CC2)C1.O=C(O)C(=O)O (stereo not drawn)	-3.59
CC(=O)c1sc(N/N=C\c2ccc(N(C)C)cc2)nc1C	17.6
Cc1nc2ccccc2c(=O)n1NC(=O)/C=C/c1ccccc1	-0.535
COc1ccc(-c2cnc(N)n2CC2CCCO2)cc1 (stereo not drawn)	10.3
O=C(c1cc(Cl)cc(Cl)c1)N1CCN(c2cc(C(F)(F)F)nc3ccccc23)CC1	12.3
CCO[C@H]1OC(C(=O)N2CCOCC2)=C[C@@H](c2ccccc2)[C@@H]1CCCO	9.41
CN1CCN(C(=O)c2ccc3c(=O)n(Cc4ccco4)c(=S)[nH]c3c2)CC1	2.56
O=C1c2cccnc2C(Nc2ccc(Cl)cc2)N1Cc1cccs1 (stereo not drawn)	6.55
COc1ccc2[nH]c(C)c(CCNC(=S)Nc3ccccc3OC)c2c1	10.4
Cc1ccc(S(=O)(=O)NC(=O)Nc2nc(-c3ccc(F)c(F)c3)cs2)cc1	16.1
Cc1ccc(Nc2nc(-c3sc(NC(=O)c4ccccc4)nc3C)cs2)cc1	6.04
Cc1ccc(S(=O)(=O)N2CCCCC2)cc1C(=O)c1nccn1C	2.93
N#Cc1ccccc1NCc1ccccc1	14.6
Cn1cnc2ccc([N+](=O)[O-])cc2c1=O	9.91
CC12CN3CC(C)(CN(C1)C3c1ccccc1Cl)C2O (stereo not drawn)	-5.32
Cc1ccc(-c2ccc(/C=C/C(=O)c3ccccc3)o2)cc1	2.63
